Assay results as given in PubChem BioAssay AID588453 (National Center for Advancing Translational Sciences (NCATS), 2011).
“And” between values parts separate entries of the source, which are not always exact repeats. Identical values can stand only once. Out of some 390,000 compounds screened, about 4,000 (1%) were called active. The inconclusive results got no clear call from the source; some entries with a clear call stand among them for comparison. Calls come from the whole dose curve; as a rule, active = well fitted inhibition curve with a large enough effect; inconclusive = small, poorly fitted or top-dose-only effect; inactive = no such curve, though single readings can be large or run the other way. A potency beside an inconclusive call is a rough fit, not a confirmed value.
% is set by controls: 0 for no effect and ±100 for the full control effect; potency is the fitted concentration of half-maximal effect; tags give direction and shape of the fitted curve.
Note: nearly all actives have a fitted effect of over 65% in size.

What follows are compounds tested against Thioredoxin reductase 1, cytoplasmic (Rattus norvegicus) (UniProt O89049) (assay: qHTS Assay for Inhibitors of Mammalian Selenoprotein Thioredoxin Reductase 1 (TrxR1): qHTS). Conditions: recombinant rTrxR1, NADPH fluorescence consumption, selenite substrate; series mostly up to 114 µM; activity change, negative = inhibition: at the top concentration.
Sequence of UniProt O89049 (O89049 whole entry, looked up): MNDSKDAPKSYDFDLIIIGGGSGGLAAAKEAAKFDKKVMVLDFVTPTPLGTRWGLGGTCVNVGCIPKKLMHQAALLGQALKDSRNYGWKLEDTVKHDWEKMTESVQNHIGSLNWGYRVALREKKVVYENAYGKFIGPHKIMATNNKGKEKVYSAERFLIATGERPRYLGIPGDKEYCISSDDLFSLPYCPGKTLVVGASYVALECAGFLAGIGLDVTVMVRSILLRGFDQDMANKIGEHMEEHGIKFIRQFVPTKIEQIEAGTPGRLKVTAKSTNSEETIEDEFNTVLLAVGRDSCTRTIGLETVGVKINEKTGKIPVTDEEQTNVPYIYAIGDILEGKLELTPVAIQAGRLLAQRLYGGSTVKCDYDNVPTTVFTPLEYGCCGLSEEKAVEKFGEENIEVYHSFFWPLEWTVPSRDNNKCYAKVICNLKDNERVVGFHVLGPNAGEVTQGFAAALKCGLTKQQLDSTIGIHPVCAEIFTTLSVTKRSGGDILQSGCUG
Outline: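 Rat TrxR1 (90 nM in the dispensed reagent) was pre-reduced with 400 uM NADPH for 5 min at room temperature, then incubated with compound for 15 min. After 400 uM selenite was added, NADPH fluorescence (Ex 340/Em 450 nm) was followed for 8 min.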
For `Cc1ccccc1OCc1nc2ccccc2c(=O)n1/N=C/c1c[nH]c2ccccc12`, the “activity change, negative = inhibition” value was inactive: 24.3% [at 57.1 µM]. In the case of `CCC(COC)NCc1cn(-c2ccc(F)cc2F)nc1-c1ccccc1C` (stereo not drawn), the “activity change, negative = inhibition” value is reported as inactive: 1.6%. For `C=CCNC(=O)C(C#N)c1nc2ccccc2nc1N1CCCCCC1` (stereo not drawn), the Potency was inconclusive: 89.1 µM [inhibitor, single point]. `O=S(=O)(CCN(CCS(=O)(=O)C(F)(F)F)CC1CCCO1)C(F)(F)F` (stereo not drawn) was tested, and the Potency was inconclusive: 0.1 µM [inhibitor, full curve, poor fit]. For `O=C1C2C3C=CC(C3=C3CCCCC3)C2C(=O)N1Cc1ccccc1` (stereo not drawn), the Potency was inconclusive: 28.2 µM [inhibitor, single point]. For `CCN(C(=O)CSc1nnc(-c2ccco2)n1C)c1c(N)n(Cc2ccccc2)c(=O)[nH]c1=O`, the Potency was inconclusive: 11.2 µM [inhibitor, partial curve]. With `O=C(NNc1nc2cc3c(cc2s1)OCO3)c1cccc(F)c1` the “activity change, negative = inhibition” value was inactive: 5.42%. `CCOC(=O)CC(NC(=O)CCc1c(C)nc2c(-c3ccccc3)c(C)nn2c1C)c1ccc(C)cc1` (stereo not drawn) was tested, and the “activity change, negative = inhibition” value was inactive: 17.2%. In the case of `CC(C)CC(=O)NC(=S)Nc1cc(C(=O)O)ccc1Cl`, the Potency is reported as inconclusive: 70.8 µM [inhibitor, partial curve]. `CCCCn1c(=O)n(CC(=O)Nc2ccc(C)c(Cl)c2)c(=O)c2c1ncn2Cc1ccco1` was tested, and the Potency was inconclusive: 79.4 µM [inhibitor, single point]. For `Cc1c(C(=O)c2ccccc2)c2ccccn2c1CCC#N`, the Potency was inconclusive: 89.1 µM [inhibitor, single point]. `CC(C)C(C)NC(=O)COc1ccc([N+](=O)[O-])cc1Cl` (stereo not drawn) was tested, and the Potency was inconclusive: 89.1 µM [inhibitor, partial curve]. `COCCCNC(=O)c1[nH]c2cc(OC)ccc2c1Sc1ccc(C)cc1` was tested, and the “activity change, negative = inhibition” value was inactive: 9.7%. For `Cc1ccc(NNC(=O)Nc2ccc(Cl)cc2)nn1`, the “activity change, negative = inhibition” value was inactive: 15.6%. In the case of `Cc1onc(-c2ccccc2Cl)c1C(=O)OCC(=O)Nc1cccc(S(=O)(=O)N2CCOCC2)c1`, the “activity change, negative = inhibition” value is reported as inactive: 16.1% [at 57.1 µM]. For `COc1ccc(-c2cc(-c3ccccc3)c(C#N)c(=S)[nH]2)cc1`, the Potency was inconclusive: 31.6 µM [inhibitor, partial curve]. `CSc1nnc(C)c(=O)n1COC(=O)c1ccc(S(=O)(=O)N2CCOCC2)cc1` was tested, and the Potency was inconclusive: 70.8 µM [inhibitor, partial curve]. For `CN1C(=O)C(=O)/C(=C(/O)c2ccc(Br)cc2)C1c1ccccc1F` (stereo not drawn), the “activity change, negative = inhibition” value was inactive: -1.23%. In the case of `CC(C)c1ccccc1NC(=S)NC(=O)C1CCCCC1`, the Potency is reported as inconclusive: 15.8 µM [inhibitor, partial curve]. `Cc1cc(N/N=C/c2ccc(O)cc2)nc(NS(=O)(=O)c2ccccc2)n1` was tested, and the “activity change, negative = inhibition” value was inactive: -12.6%. In the case of `Cc1cccn2c(=O)cc(CSc3nnc(NC(=O)COc4ccc(F)cc4)s3)nc12`, the “activity change, negative = inhibition” value is reported as inactive: 12.7% [at 57.1 µM]. For `O=C(Cc1ccccc1)N(Cc1cccnc1)c1nc2ccc(Cl)cc2s1`, the Potency was inconclusive: 14.1 µM [inhibitor, partial curve, poor fit]. For `CCCC(OC(=O)CC1Sc2ccccc2NC1=O)C(=O)NCc1ccco1` (stereo not drawn), the Potency was inconclusive: 14.1 µM [inhibitor, single point]. `Cc1cccnc1NC(=O)c1ccc(S(=O)(=O)N2CCCCC2)cc1` was tested, and the “activity change, negative = inhibition” value was inactive: -3.23%. In the case of `CCOC(=O)C1=C(C)OC(N)=C(C#N)C1c1cc2cc(C)ccc2nc1N1CCCCC1` (stereo not drawn), the Potency is reported as inconclusive: 10 µM [inhibitor, partial curve]. With `CCOC(=O)c1cccc(-n2nnc3c(sc4nc(C)c(Br)c(C)c43)c2=O)c1` the “activity change, negative = inhibition” value was inactive: 3.31%. In the case of `O=C(CS(=O)(=O)Cc1ccccc1)Nc1nnc(C(F)(F)F)s1`, the Potency is reported as inconclusive: 79.4 µM [inhibitor, partial curve, poor fit]. `Cc1ccc(NC(=O)COc2cccc(-n3cnnn3)c2)cc1S(=O)(=O)N1CCOCC1` was tested, and the “activity change, negative = inhibition” value was inactive: 15.8%. For `Cc1cc(C)nc(Nc2ccc(N3CCCC3)cc2)n1`, the Potency was inconclusive: 14.1 µM [inhibitor, full curve]. For `Cc1cccc(C)c1NCc1n[nH]c(=S)n1-c1ccccc1`, the Potency was inconclusive: 2.24 µM [inhibitor, partial curve, poor fit]. In the case of `CSc1ccc(-c2sc(Nc3ccccc3)n[n+]2-c2ccc(F)cc2)cc1`, the “activity change, negative = inhibition” value is reported as inactive: -5.55%. In the case of `C[C@@H]1[C@H](c2ccccc2)OCCS(=O)(=O)N1Cc1ccccc1Br`, the “activity change, negative = inhibition” value is reported as inactive: 28.1%. In the case of `CCS(=O)(=O)N1CCc2cc(C(=O)NCc3ccc(Cl)cc3)ccc21`, the “activity change, negative = inhibition” value is reported as inactive: 6.44%. `COc1ccc2[nH]c(C)c(C(=O)CN(C)C)c2c1` was tested, and the Potency was inconclusive: 56.2 µM [inhibitor, partial curve]. With `CCOc1ccc(N2C(=O)C3C(c4ccccc4)=NN(c4ccccc4)C3C2=O)cc1` (stereo not drawn) the “activity change, negative = inhibition” value was inactive: 114%. In the case of `COC(=O)C1C/C(=N/NS(=O)(=O)c2ccc(C)cc2)CS1` (stereo not drawn), the Potency is reported as inconclusive: 10 µM [inhibitor, full curve]. For `O=C(Nc1ccc(N2CCN(c3ccc(C(F)(F)F)cn3)CC2)nc1)c1cccs1`, the “activity change, negative = inhibition” value was inactive: 24.6% [at 57.1 µM]. In the case of `O=C(O)c1cccc(S(=O)(=O)N2CC=C(c3ccccc3)CC2)c1`, the Potency is reported as inconclusive: 44.7 µM [inhibitor, partial curve]. With `O=C(c1cc2ccccc2o1)N1CCN(C/C=C/c2ccccc2)CC1` the Potency was inconclusive: 22.4 µM [inhibitor, partial curve, poor fit]. With `CC(C)(C)OC(=O)[C@H](Cc1ccccc1)NC(=O)c1nc[nH]c1C(=O)N[C@@H](Cc1ccccc1)C(=O)OC(C)(C)C` the “activity change, negative = inhibition” value was inactive: 15.2%. In the case of `CCN(CC)Cc1c(O)ccc2c(=O)c(Oc3ccccc3OC)c(C)oc12`, the Potency is reported as inconclusive: 79.4 µM [inhibitor, single point]. With `Cc1nn2c(nc1=O)NNC2(C)C(C)(C)C` (stereo not drawn) the “activity change, negative = inhibition” value was inactive: 13.9%. `CCC(Sc1nc2ccccc2c2nc(CCc3c(C)n[nH]c3C)nn12)C(=O)Nc1ccc(OC)cc1` (stereo not drawn) was tested, and the “activity change, negative = inhibition” value was inactive: 14.5% [at 57.1 µM]. In the case of `COC(=O)c1c(C)oc2ccc(NS(=O)(=O)c3cccs3)cc12`, the “activity change, negative = inhibition” value is reported as inactive: -6.51%. For `Cc1cc(C)cc(Oc2ncnc3c2ncn3Cc2c(Cl)cccc2Cl)c1`, the Potency was inconclusive: 1.58 µM [inhibitor, single point]. For `C#CCOCCOCCOCCNc1nc(N2CCN(C(=O)[C@H]([C@@H](C)CC)n3cc([C@@H](N)CO)nn3)CC2)nc(N2CCN(C(=O)[C@H]([C@@H](C)CC)n3cc([C@@H](N)Cc4ccc(O)cc4)nn3)CC2)n1`, the Potency was inconclusive: 20 µM [inhibitor, partial curve]. For `Nc1nonc1-n1nnc(C(=O)N/N=C/c2cc(Br)ccc2O)c1CSC1=NCCS1`, the Potency was inconclusive: 89.1 µM [inhibitor, single point]. With `O=c1cc(C(F)(F)F)c2sc(N3CCCCC3)nc2[nH]1` the Potency was inconclusive: 35.5 µM [inhibitor, single point]. With `CC1=Nc2ccccc2/C1=C/c1c(C)[nH]c2ccccc12` the Potency was inconclusive: 56.2 µM [inhibitor, partial curve, poor fit]. In the case of `COc1ccccc1CN1CC(C(=O)N(C)Cc2ccc(C)o2)CCC1=O` (stereo not drawn), the Potency is reported as active: 35.5 µM. For `O=C(NCCO)c1nc(C(=O)c2ccc(Cl)cc2)c2ccccc2n1`, the Potency was inconclusive: 39.8 µM [inhibitor, single point]. `CCc1nnc(NS(=O)(=O)c2ccc(NC(=S)NC(=O)c3ccc(OC)c(OC)c3)cc2)s1` was tested, and the Potency was inconclusive: 31.6 µM [inhibitor, full curve]. `c1ccc(-n2c(SCc3ccncc3)nnc2-c2ccco2)cc1` was tested, and the “activity change, negative = inhibition” value was inactive: -36.9%. For `COc1ccc(CN2CCC(=O)c3ccccc3S2(=O)=O)cc1`, the Potency was inconclusive: 50.1 µM [inhibitor, single point]. For `CCOc1cc(/C=N/n2cnnc2)cc(Br)c1O`, the Potency was inconclusive: 70.8 µM [inhibitor, partial curve, poor fit]. With `COc1cc(OC)cc(C(=O)NNC(=O)CCC(=O)c2cccs2)c1` the Potency was inconclusive: 79.4 µM [inhibitor, single point]. In the case of `Cc1ccc(S(=O)(=O)CNC(=S)c2ccc3ccccc3c2)cc1`, the Potency is reported as active: 39.8 µM. For `CC(Oc1ccccc1)C(=O)Nc1cccc(-c2nc3ccccc3[nH]2)c1` (stereo not drawn), the “activity change, negative = inhibition” value was inactive: 9.78% [at 57.1 µM]. For `COc1ccc(/C=C(\C#N)c2c[nH]c3ccccc23)cc1`, the Potency was inconclusive: 70.8 µM [inhibitor, single point]. For `CCCCC(c1nnnn1Cc1ccco1)N1CCN(C(=O)c2ccco2)CC1` (stereo not drawn), the Potency was inconclusive: 70.8 µM [inhibitor, single point]. For `S=C(Nc1ccccc1)Nc1nccs1`, the Potency was inconclusive: 11.2 µM [inhibitor, partial curve, poor fit] and inconclusive: 752 nM [inhibitor, full curve] and inconclusive: 5.97 µM [inhibitor, full curve]. `Cc1ccc(OCc2nnc(SCC(=O)c3cccc([N+](=O)[O-])c3)n2C)cc1` was tested, and the Potency was inconclusive: 56.2 µM [inhibitor, partial curve, poor fit]. With `CC(C)C(=O)N1CCN(CCN=CC2=C(O)CC(c3ccco3)CC2=O)CC1` (stereo not drawn) the Potency was inconclusive: 35.5 µM [inhibitor, single point]. With `CCOC(=O)C1CCCN(c2c(NCCCN3CCCC(C)C3)c(=O)c2=O)C1` (stereo not drawn) the Potency was inconclusive: 89.1 µM [inhibitor, partial curve, poor fit]. With `Cc1cccc(C)c1Nc1c(-c2cccs2)nc2ncccn12` the “activity change, negative = inhibition” value was inactive: 3.3%. For `Cc1cc(=O)[nH]c(N/N=C/c2cc(C)n(-c3ccccc3)c2C)n1`, the Potency was inconclusive: 79.4 µM [inhibitor, partial curve, poor fit]. With `CC(=O)Oc1ccc(-c2ccc(C(=O)OCC(=O)N(C)CC(=O)Nc3ccccc3Cl)cc2)cc1` the Potency was inconclusive: 89.1 µM [inhibitor, single point]. With `O=C1/C(=C/c2cccnc2)CCC/C1=C\c1cccnc1` the Potency was inconclusive: 50.1 µM [inhibitor, partial curve].
